Numbering of substitutions follows the chain as printed. Names may count otherwise. Values belong to the binder of their own block, whether it stands above or below them.
Columns and labels:
[1] = target: T1, Biotin QP004.3 (biotin-PDL1-FC) (human, UniProt Q9NZQ7 partial chain, limits assumed, biotin label, site not stated); test: PD-L1 binding ELISA, antibody coated, biotin-PDL1-FC titrated
T1 construct: In-house protein QP004.3

[2] = target: T2, Biotin QP004.3 (biotin-PDL1-FC) (human, UniProt Q9NZQ7 partial chain, limits assumed, biotinylated (sites not given)); test: as above
[3] = target: T2, Biotin QP004.3 (biotin-PDL1-FC); test: PD-L1/PD-1 blocking ELISA, PD1-FC coated; row labelled EC50; competitor PD1-FC
T2 sequence (Q9NZQ7 19-238 limits assumed): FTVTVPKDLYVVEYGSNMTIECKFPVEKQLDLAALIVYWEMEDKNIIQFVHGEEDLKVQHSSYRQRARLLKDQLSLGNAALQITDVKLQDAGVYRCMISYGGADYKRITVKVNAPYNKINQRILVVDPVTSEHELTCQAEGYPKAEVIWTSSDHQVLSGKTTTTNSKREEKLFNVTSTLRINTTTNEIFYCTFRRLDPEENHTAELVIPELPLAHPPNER

[4] = target: T2, Biotin QP004.3 (biotin-PDL1-FC); test: PD-L1/PD-1 blocking ELISA, PD1-FC coated, biotin-PDL1-FC plus antibody, duplicate wells; competitor PD1-FC

binding result [1]: binds
B1: QP3691433 (bispecific antibody, human IgG1, kappa)
heavy: EVQLVESGGGLVKPGGSLRLSCAASGFTFSNYAMSWVRQAPGKGLEWVASIISGGRTYYLDSEKGRFTISRDNAKNSLYLQMNSLRAEDTAVYYCTRIYYGNSFDYWGQGTLVTVSS[here human IgG1 constant region without letters]GGGSGGGGSGGGGSGGGGSEVQLLESGGGLVQPGGSLRLSCAASGFTYGTYAMSWFRQAPGKGREGVACIDIYGRASYTDPVKGRFTISQDNSKNTLYLQMNSLKAEDTAVYYCAARDFGYCTASWVHEGFSRYWGQGTLVTVSS
light: DIVMTQSPDSLAVSLGERATINCKSSQSLLNSGNQKNYLTWYQQKPGQPPKLLIYWASTRESGVPDRFSGSGSGTDFTLTISSLQAEDVAVYYCQNDYSYPFTFGQGTKLEIKRTVAAPSVFIFPPSDEQLKSGTASVVCLLNNFYPREAKVQWKVDNALQSGNSQESVTEQDSKDSTYSLSSTLTLSKADYEKHKVYACEVTHQGLSSPVTKSFNRGEC
notes: also called QD3691433 (HuQP190191/QP322)

EC50 [2]: 4.22 ng/mL
IC50 [3]: 4.5 nM
ELISA reading at 0.4115 nM antibody [4]: 2.05
B2: QP3691433 (bispecific antibody, human IgG1, kappa)
light: B1 light
heavy: B1 heavy
notes: Anti-CLDN18.2 IgG with the anti-PD-L1 VHH QP322 at the C-terminal of the heavy chain by linker (G4S)4; also called QD3691433 (HuQP190191/QP322)

binding result [1]: binds
B3: QP3711461 (bispecific antibody, human IgG1, kappa)
heavy: QVQLVQSGAEVKKPGASVKVSCKASGYTFTSYIMHWVRQAPGQGLEWMGYINPYNDGTKYNEKFKGRVTMTRDTSTSTVYMELSSLRSEDTAVYYCARLGFTTRNAMDYWGQGTLVTVSS[here human IgG1 constant region without letters]GGGSGGGGSGGGGSGGGGSEVQLLESGGGLVQPGGSLRLSCAASGFTYGTYAMSWFRQAPGKGREGVACIDIYGRASYTDPVKGRFTISQDNSKNTLYLQMNSLKAEDTAVYYCAARDFGYCTASWVHEGFSRYWGQGTLVTVSS
light: B1 light with T40A, W56G, S69T, Y98H
notes: also called CHO14; CH014

EC50 [2]: 7.94 ng/mL
IC50 [3]: 4.37 nM
B4: QP3711461 (bispecific antibody, human IgG1, kappa)
light: B1 light with T40A, W56G, S69T, Y98H
heavy: B3 heavy
notes: Anti-CLDN18.2 IgG with the anti-PD-L1 VHH QP322 at the C-terminal of the heavy chain by linker (G4S)4; also called CHO14; CHO-14

EC50 [2]: 6.11 ng/mL
IC50 [3]: 4.69 nM
B5: QP3701440 (bispecific antibody, human IgG1, kappa)
light: B1 light with N22S, D97A
heavy: QVQLVQSGAEVKKPGASVKVSCKASGYAFSSYWMNWVRQAPGQGLEWIGQIYPGNGDTTYNGKFKGRVTMTADKSTSTVYMELSSLRSEDTAVYFCARFVKGNAMDYWGQGTLVTVSS[here human IgG1 constant region without letters]GGGSGGGGSGGGGSGGGGSEVQLLESGGGLVQPGGSLRLSCAASGFTYGTYAMSWFRQAPGKGREGVACIDIYGRASYTDPVKGRFTISQDNSKNTLYLQMNSLKAEDTAVYYCAARDFGYCTASWVHEGFSRYWGQGTLVTVSS
notes: Anti-CLDN18.2 IgG with the anti-PD-L1 VHH QP322 at the C-terminal of the heavy chain by linker (G4S)4; also called QD3701440 (HuQP192193/QP322)

binding result [1]: binds
B6: QP3701440 (bispecific antibody, human IgG1, kappa)
heavy: B5 heavy
light: B1 light with N22S, D97A
notes: also called QD3701440 (HuQP192193/QP322)

Source: US20230183352A1 (published 2023)
